{"source": "the supplement of paper PMC3334620", "note": "In all, about 33,000 sequences were measured (“E-score (-0.5 to 0.5)”: median about -0.032, highest 2% from about 0.36 on). The list shows a part of the results."}
{"target": "T1, Sko1 (UniProt Q02100)", "T1 sequence": "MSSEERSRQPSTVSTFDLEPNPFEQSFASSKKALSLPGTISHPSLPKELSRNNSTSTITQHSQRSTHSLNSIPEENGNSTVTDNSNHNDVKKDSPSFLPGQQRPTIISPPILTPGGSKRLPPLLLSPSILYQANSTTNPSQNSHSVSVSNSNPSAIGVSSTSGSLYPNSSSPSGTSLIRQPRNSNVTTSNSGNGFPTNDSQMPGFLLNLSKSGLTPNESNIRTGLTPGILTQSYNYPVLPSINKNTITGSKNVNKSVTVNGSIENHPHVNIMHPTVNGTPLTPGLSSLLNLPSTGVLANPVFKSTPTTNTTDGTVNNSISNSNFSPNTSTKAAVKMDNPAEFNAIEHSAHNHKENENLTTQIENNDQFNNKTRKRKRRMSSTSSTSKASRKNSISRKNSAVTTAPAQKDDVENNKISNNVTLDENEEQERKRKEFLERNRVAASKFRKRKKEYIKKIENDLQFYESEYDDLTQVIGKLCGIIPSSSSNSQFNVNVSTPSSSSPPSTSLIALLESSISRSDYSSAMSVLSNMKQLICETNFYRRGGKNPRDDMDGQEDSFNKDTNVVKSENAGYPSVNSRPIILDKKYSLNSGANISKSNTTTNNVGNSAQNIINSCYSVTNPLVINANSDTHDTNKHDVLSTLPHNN", "experiment": "PBM E-score (8-mer binding enrichment) (E-score (-0.5 to 0.5)); higher = stronger / more preferred TF binding; most listed sequences are background and not binding sites", "conditions": "protein concentration: 200 nM; construct: GST-full length", "in_short": "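Bound GST-tagged yeast transcription factors, applied at about 100-200 nM to double-stranded universal all-10-mer Agilent arrays, were detected with fluorescent anti-GST. Scans were normalised with masliner. A modified Wilcoxon-Mann-Whitney statistic, the E-score, was assigned to each ungapped eight-base word pooled with its reverse complement by the Universal PBM Analysis Suite.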"}
{"sequence": "CACTGAGG", "PBM E-score": -0.043}
{"sequence": "ATTCTGAC", "PBM E-score": 0.177}
{"sequence": "CCAGAATC", "PBM E-score": -0.0652}
{"sequence": "GCTCTAAC", "PBM E-score": -0.0398}
{"sequence": "CAGAAGTA", "PBM E-score": 0.0595}
{"sequence": "CTCGGCTC", "PBM E-score": -0.305}
{"sequence": "GCAGCCAA", "PBM E-score": 0.0509}
{"sequence": "CATGGGGC", "PBM E-score": -0.191}
{"sequence": "ATGAGTGA", "PBM E-score": 0.143}
{"sequence": "AGGTAAGC", "PBM E-score": -0.163}
{"sequence": "TCAACCCA", "PBM E-score": 0.0361}
{"sequence": "TCAGTGGA", "PBM E-score": -0.176}
{"sequence": "CCAGCCGG", "PBM E-score": -0.316}
{"sequence": "ACAAACGA", "PBM E-score": 0.207}
{"sequence": "TCAAAAAA", "PBM E-score": 0.107}
{"sequence": "AGTGATAG", "PBM E-score": -0.111}
{"sequence": "TGCACGAA", "PBM E-score": 0.217}
{"sequence": "ACTGTTAT", "PBM E-score": 0.2}
{"sequence": "AAGTAACT", "PBM E-score": 0.153}
{"sequence": "ATCTGCAT", "PBM E-score": 0.0514}
{"sequence": "GCCTCACA", "PBM E-score": 0.0584}
{"sequence": "ATCGACCG", "PBM E-score": -0.213}
{"sequence": "CGAGTTGC", "PBM E-score": 0.0182}
{"sequence": "CGAAATCA", "PBM E-score": 0.294}
{"sequence": "CGAGAAGA", "PBM E-score": -0.0201}
{"sequence": "CTGGGCGA", "PBM E-score": -0.308}
{"sequence": "AAGGCGAT", "PBM E-score": 0.0623}
{"sequence": "ATCGCGAA", "PBM E-score": 0.0672}
{"sequence": "GCCTTGAC", "PBM E-score": -0.0622}
{"sequence": "AAGTAACA", "PBM E-score": 0.0118}
{"sequence": "AAAAAGGT", "PBM E-score": -0.0544}
{"sequence": "ACTACGAG", "PBM E-score": 0.162}
{"sequence": "CCGCTGAA", "PBM E-score": -0.0549}
{"sequence": "CCTGCTCA", "PBM E-score": -0.126}
{"sequence": "AATCGCAT", "PBM E-score": -0.00604}
{"sequence": "CCAACACA", "PBM E-score": 0.132}
{"sequence": "TATTTGAA", "PBM E-score": 0.0785}
{"sequence": "ATTGAAGC", "PBM E-score": -0.0571}
{"sequence": "AAGGTCTA", "PBM E-score": -0.216}
{"sequence": "ACTCATAC", "PBM E-score": 0.134}
{"sequence": "CTTAGACA", "PBM E-score": -0.0184}
{"sequence": "CTAGTAGC", "PBM E-score": -0.0469}
{"sequence": "CCAGCGGC", "PBM E-score": -0.149}
{"sequence": "CCTTAGCG", "PBM E-score": -0.185}
{"sequence": "GCCCAGAA", "PBM E-score": -0.194}
{"sequence": "GCGCGCAC", "PBM E-score": 0.127}
{"sequence": "CGGTGACG", "PBM E-score": 0.449}
{"sequence": "CTCATCTC", "PBM E-score": 0.0458}
{"sequence": "ATAACTAT", "PBM E-score": 0.129}
{"sequence": "TACTAATA", "PBM E-score": 0.251}
{"sequence": "GGCATGAC", "PBM E-score": 0.184}
{"sequence": "AATCCGGA", "PBM E-score": 0.0142}
{"sequence": "AATGCGTG", "PBM E-score": 0.214}
{"sequence": "CGCCTCAA", "PBM E-score": -0.207}
{"sequence": "CACTTTTA", "PBM E-score": 0.0638}
{"sequence": "CGTGTGTA", "PBM E-score": 0.294}
{"sequence": "AACGCGAA", "PBM E-score": 0.0822}
{"sequence": "GTCGAGTA", "PBM E-score": -0.112}
{"sequence": "GTTAGACA", "PBM E-score": 0.136}
{"sequence": "AGTGAGTA", "PBM E-score": 0.241}
{"sequence": "ACGCCGCC", "PBM E-score": -0.104}
{"sequence": "GGCTCTTA", "PBM E-score": -0.236}
{"sequence": "CATATGCG", "PBM E-score": 0.0797}
{"sequence": "AACCTCAA", "PBM E-score": 0.0294}
{"sequence": "GTCCGGTA", "PBM E-score": -0.135}
{"sequence": "ATTTACCG", "PBM E-score": 0.0597}
{"sequence": "CGTATTTC", "PBM E-score": 0.367}
{"sequence": "ATGGATCC", "PBM E-score": -0.133}
{"sequence": "GATTCGAC", "PBM E-score": -0.0624}
{"sequence": "ATGGGGTA", "PBM E-score": -0.11}
{"sequence": "TCGGAAGA", "PBM E-score": 0.0306}
{"sequence": "CGAGGACG", "PBM E-score": -0.136}
{"sequence": "GTACCAAA", "PBM E-score": 0.191}
{"sequence": "GGGTTGTA", "PBM E-score": -0.19}
{"sequence": "TGCGCGAA", "PBM E-score": 0.169}
{"sequence": "TCCATCGA", "PBM E-score": 0.0508}
{"sequence": "GGTAGAGA", "PBM E-score": -0.0375}
{"sequence": "AAATCGCG", "PBM E-score": 0.0444}
{"sequence": "TCTACTAA", "PBM E-score": 0.0947}
{"sequence": "CAATACCA", "PBM E-score": 0.155}
{"sequence": "ACGGAGCA", "PBM E-score": -0.116}
{"sequence": "ACTTTACT", "PBM E-score": 0.0486}
{"sequence": "CAACTGGC", "PBM E-score": -0.0932}
{"sequence": "CCTCCACC", "PBM E-score": -0.283}
{"sequence": "ACGATCAA", "PBM E-score": 0.148}
{"sequence": "GAGATCGA", "PBM E-score": 0.0574}
